Laboratory results as given in ChEMBL document CHEMBL4888484, “Replenishing the malaria drug discovery pipeline: Screening and hit evaluation of the MMV Hit Generation Library 1 (HGL1) against asexual blood stage Plasmodium falciparum ,using a nano luciferase reporter read-out” (2022).
The whole screen tested about 150,000 compounds, of which about 540 (0.36%) showed an effect of 50% or more. The list shows a part of the results.

These molecules were tested on Plasmodium falciparum (assay: Primary screen in NF54 nanoGlo assay, in single point, at 2uM, 72h; a lower Z score goes with more inhibition). Details: timepoint 72 hour.
Assay type: functional, Erythrocyte

Compound | % Inhibition [%] | Z score
CCN(CC)c1ccc(C(=O)Nn2cc(C(=O)NC3CCCCC3)c3ccccc3c2=O)cc1 | -9 | 1.45
COc1ccc2c(c1)CCc1c(C(=O)NCCN3CCN(c4ccccc4F)CC3)n[nH]c1-2 | -7 | 1.13
Cc1noc2nc(C3CC3)cc(C(=O)N3CCN(c4nccs4)CC3)c12 | -3 | 0.52
Cc1ccc(-c2ccc(=O)n(Cc3noc(C(=O)NCCc4ccccc4)n3)n2)cc1 | -15 | 1.84
COc1c(C(=O)OCC2(CC#N)CC2)c(C)nn1C | -10 | 1
OC1CN(c2ncc(-c3ccccc3)s2)C1 | -8 | 1.48
CC(C)CNC(=O)N1CC[C@H](N(CCN2CCOCC2)S(C)(=O)=O)C1 | -4 | 0.7
CN1CCC2CC[C@H](C1)N2C(=O)Nc1cccc(C#N)c1 | 2 | -0.19
CCn1ncc(-c2cc(C(F)F)nc(N3CCC[C@H](C)C3)n2)c1C | 27 | -3.07
Cc1nc2c(c(C(F)(F)F)n1)C[C@@H](C(=O)Nc1cccc(CN(C)C)c1)CC2 | 1 | -0.07
CCN(CC)Cc1cc(-c2nc(C)n[nH]2)c(C)o1 | 20 | -2.51
Nc1ncnc(NCCc2ccccc2)n1 | 2 | -0.24
CCCC[C@@]1(O)COC2(CN(C(=O)c3cc(C)nn3C)C2)C1 | -10 | 1.57
CN(C)c1ccc(NC(=O)C(=O)N2CCC[C@@H]2Cn2ccnc2)cc1 | -12 | 1.55
O[C@H]1CCCN(c2ccnc(-c3cnc4ccccc4c3)n2)C1 | 1 | -0.18
Cc1sc2ncnc(N3CCCCCC3)c2c1C(=O)Nc1ccc(F)c(F)c1 | 4 | -0.5
CC(C)(NC(=O)Nc1cccc(Cl)c1)C(=O)N1CCC(O)CC1 | -5 | 0.6
CS(=O)(=O)N1CCC([C@H]2CCN(Cc3ccc(F)cc3F)C2)CC1 | 0 | 0.05
COc1ccc(C=C(C)CN[C@@H](C)c2cnn(C)c2)cc1 | -6 | 0.8
CC(C)(c1nnn(CC2(O)CCCCC2)n1)S(C)(=O)=O | -3 | 0.61
Cc1cccc(-c2nc3nc(C)cc(N(C)Cc4ccccc4)n3n2)c1 | -23 | 4.1
Cc1ccnc(NS(=O)(=O)c2ccc(NC(=O)Cc3cccs3)cc2)n1 | -4 | 0.6
O=C1CC[C@@H]2CN(c3nccs3)CC[C@@H]2N1CCCn1ccnc1 | -13 | 2.26
CC1(C)[C@@H](NS(=O)(=O)C2COC2)[C@@H]1c1ccccc1 | 2 | -0.23
Cc1cc(-c2ccccn2)nn1CCO | 4 | -0.52
CCCc1nc(C)c(CN2CC[C@H](CS(C)(=O)=O)C2)o1 | 2 | -0.42
Cc1ccoc1C(=O)N1CCC(Oc2ccc(F)cc2)(C(=O)O)CC1 | -17 | 2.83
CC(C)CN(Cc1ccccc1OS(=O)(=O)c1ccc(F)cc1)C(=O)C1CCC1 | -9 | 0.9

Compound | % Inhibition [%] | Z score
CCOC(=O)C1CCCN(C2CCN(C(=O)CN3Cc4ccc(OC)cc4OC(C)C3)CC2)C1 (stereo not given) | 8 | -1.04
Cc1nc[nH]c1CN1C[C@H]2CC[C@@H](C1)N(Cc1ccc3c(c1)OCCO3)C2 | -1 | 0.11
O=C(Nc1cccc(-c2nnco2)c1)N[C@H]1CCS(=O)(=O)c2ccc(Cl)cc21 | -8 | 1.41
CC(NCC1CCCS1(=O)=O)c1cc2cnccc2o1 (stereo not given) | -13 | 2
O=C(CCc1c(F)cccc1Cl)NC1CCC2OCCOC2C1 (stereo not given) | -3 | 0.66
Cc1cc(C)cc(-c2nc3cc(C)ccn3c2NC(=O)C2CCCC2)c1 | -10 | 1.67
O=S(=O)(N1CCOCC1)N1CC[C@H](Oc2ncc(Cl)cn2)C1 | 3 | -0.48
Cn1nccc1[C@H](CO)Nc1ncnc2ccsc12 | 0 | 0
Cc1nc(N2CCC[C@H](C(=O)O)C2)c2c(C)noc2n1 | -8 | 1.18
Cc1nnc([C@H](C)Nc2ccc3c(c2)OCCO3)o1 | 1 | -0.08
C[C@@H](Cc1ccc2c(c1)CCO2)NC(=O)c1ccc2nsnc2c1 | 4 | -0.63
NC(=O)Cn1cc(CN2CCc3ccc(Cl)cc32)nn1 | -7 | 1.08
CC[C@@H](CC#N)NC(=O)NC1CCCCC1 | -15 | 2.93
COc1cccc(CC(=O)N2CC(Cn3cncn3)C2)c1 | 4 | -0.64
Cc1nc2ccc(F)cc2c(OCc2csc([C@@H]3CCCO3)n2)c1C | -6 | 0.76
O=C(c1cc(-c2ccco2)[nH]n1)N(C[C@H]1CCOC1)C1CC1 | 0 | -0.04
O=C(c1cocn1)N1CCC2(CCN(Cc3ccccc3)CC2)CC1 | -6 | 0.83
COc1ccc(Cl)c(CN(CC#N)S(=O)(=O)N(C)C)c1 | 5 | -0.71
Cc1ccc(NC(=O)[C@H](C)N(Cc2c(C)nn(C)c2C)C(C)C)cc1 | 8 | -1.05
CCCN(CC(=O)N1CCn2cccc2[C@H]1c1ccccc1F)C(=O)c1ccc(Cl)cc1 | -10 | 0.9
O=C(C1CCCC1)N1CC2CCCC(C1)C2O (stereo not given) | -2 | 0.26
O=C(CN1C(=O)C(=O)c2ccccc21)NCCc1ccccc1 | -14 | 1.84
C[C@H](NC(=O)CCc1ccccn1)c1ccc(-c2cccnc2)cc1 | -1 | 0.12
CC1CCCCC1CC(=O)Nc1[nH]ncc1C(=O)N(C)C (stereo not given) | 18 | -2.28
O=C(CN1CCC(c2nnc(-c3ccco3)s2)CC1)Nc1cccnc1 | -11 | 1.83
CCc1nc(COc2ccc(C(=O)NCc3nncn3C3CC3)cc2)no1 | -6 | 1.11
CCC[C@H]1CN(CCOCC)C[C@@H]1NC(=O)C1CCOCC1 | 4 | -0.69
